In the supplement of paper PMC11417369:
The other results are listed elsewhere or left out.

Tested on: PF3D7_0420300 AP2 domain 1 (GST-tagged)
Test: gcPBM binding intensity (ln(normalized median fluorescence intensity)); higher = stronger DNA binding
Procedure, shortened: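 Binding of GST-tagged P. falciparum DNA-binding domains, expressed in E. coli and used at about 25 μg on average, was carried out for 1 h in 1× PBS containing 1% milk, 0.2 mg/ml BSA, 0.5% salmon testes DNA and 0.03% Triton X-100. The target was an Agilent 4 × 180k array of primer-extended double-stranded 36-bp intergenic genomic probes plus negative controls, read with Alexa488 anti-GST antibody at 488 nm. Binding intensity is the highest Masliner-normalised natural-log median intensity across replicate spots of either probe orientation.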

Sequence | gcPBM binding intensity (ln)
TTTTATTCCTATTTATTTATATTTTTGTCTTATATC [CACACA_negctrl_site125] | 9.46
TTAAGAATATCTACATGTACATACCAAAGAAATACA [XGTACX_site3125] | 9.27
ATGAACAAAATGTAATGTACGAATAATTATTCATAT [XGTACX_site4812] | 9.33
TATAGACAAACACATACATGCATACATACATACATA [TGCATGCA_site273] | 9.34
AAAAAAAAGTTCTACACACACAAAAAAATATTTTTT [CACACA_site2309] | 9.74
GTGTGCTTTTTACGAGTGCAAGTATTTTGGTGGTTA [GTGCAC_site9496] | 9.41
GTACACATATAATATACACACAACAAATATGCACAT [CACACA_site1010] | 9.92
ATTTTTTATGAAAATAAACACACGATTTATTATATA [CACACA_site1312] | 9.16
TTTTCAGAAAAGAGAAACTTTATTTTTCACAACCGA [TGCATGCA_negctrl_site389] | 8.85
TAAAAAATTATTAAACGTACGAGACTTTTTATCAGT [XGTACX_site2219] | 9.13
TGTAGTCATTAGTCAAATTAGAATTAAATATATATT [GTGCAC_negctrl_site643] | 9.03
CATAAAAATGGATACACACACATAATATATTTATAT [CACACA_site7669] | 9.85
ACAATATATTCATATTGTACATAAAATAAGGCTAAC [XGTACX_site6728] | 9.47
TTATATATAGATCACACACACACACCGGTTTTAAAA [CACACA_site4220] | 10.2
AAATTTTAATTAGGAACACACATATATATATATATA [CACACA_site5673] | 9.13
TATTTATCTATATATTGTACTTATTAGTCTTAATGT [XGTACX_site4242] | 9.39
TCTTTTTTAATATAATATATTTTTATTAAGTAAATC [TGCATGCA_negctrl_site408] | 8.94
TAAATTTATGGACACACACACATATATATATATATA [CACACA_site4620] | 9.72
TATAAAAATAATATTACACACATGTAAAATGGGGGT [CACACA_site9071] | 9.81
AGGAATATCGAAAACTGTACTTGTATGTTTCATAAA [XGTACX_site6143] | 9.02
AATTGTATGTATGCCTGTACATATGTCTATCTTAAG [XGTACX_site1927] | 9.32
ATTTATTTATTTTTTTGTACTTATAATTTTTATTAT [XGTACX_site2656] | 9.46

Sequence | gcPBM binding intensity (ln)
TATTTTATATGAGGCACACAAATTTTAATTGTTATT [CACACA_site725] | 9.14
TATATTTAAATTCTTTCAAATCATGTTGTAATTTTT [CACACA_negctrl_site1349] | 9.08
ATACACTTAATATTATGTACATATATAAAAAAAATA [XGTACX_site1500] | 9.19
TGAGTATATAAATACACACACATATATATATTTTAA [CACACA_site5130] | 9.61
TTTTATTTTTAAGGATGTACTCAATTGTTTATATAC [XGTACX_site3965] | 9.15
TTTTTTTTTAATAAAATTATAATAAATATGAAATTA [XGTACX_negctrl_site369] | 8.56
ATATATATATATATATGTACACATATATATACTCAC [XGTACX_site8043] | 9.37
GCACATATGAATATAATACACACTTGTATTATTAAT [CACACA_site1841] | 9.44
ATTTTATATACAAAATGTACATATTTATTATATATG [XGTACX_site6732] | 9.22
GGAGCTATCTCCTGCACACACAATTTTTTTTTTTTT [CACACA_site2240] | 9.52
AAGGATACGCAAAAATGTACAAAATGCTTATAAATA [XGTACX_site984] | 9.19
ATTAAAATCATATACACACCCATATATATATATATA [CACACA_site5050] | 9.48
GAATAAATACCGGTGTGTACTTAAATCATTCACGAA [XGTACX_site3174] | 9.5
ATACATATCTACCTATGTACATAATACAACAAAGAT [XGTACX_site323] | 9.4
GCATGCACGGAAAAAAGTACATATATAAATTTGGTT [XGTACX_site3393] | 9.03
ATCGTTATATAATGTTGTACTTGTTATATATATATA [XGTACX_site7582] | 9.7
GGTTCTAAAAAGGGAAGTACATGGAAAAATATAAAT [XGTACX_site4639] | 9.34
AAAATTATTATGAAAAGTACAAATATGTAAACATAC [XGTACX_site5517] | 9.32
AAAATTTAGCAAAGGTGTACAAAAGATAATTAGAGT [XGTACX_site3467] | 9.77
TTTTTTAAATATATTTGTACATATGAAATAAAGATA [XGTACX_site3841] | 8.94
AATATATTTTGATATGAACAATTAATAATTTCAAAT [GTGCAC_negctrl_site170] | 9.12
TTTTTCACATCTATAAATCATCTAATCAATATTTTT [GTGCAC_negctrl_site444] | 9.11

Sequence | gcPBM binding intensity (ln)
ATTCTAATTAGTAAAGTGCAGATAAAATGATGCCCT [GTGCAC_site9578] | 9.08
TTAGAAAGAATGTATTGTACATATATATTATATATA [XGTACX_site7045] | 8.97
TGTATATTTTAGTGATGTACTAATATTATTACTAAT [XGTACX_site3952] | 9.19
ATATGTTTATTTATTTGTACTTATCATATAATAACA [XGTACX_site5486] | 9.35
TGCTTAGCACACTATCTACTTCCTTTGTTTCATAAA [GTGCAC_negctrl_site495] | 9.33
TTCATTTATATAATCACACATTTTATCATCTATGTT [CACACA_site4327] | 9.47
GTTTTATTCCATTATTGTACTTAATATAAAGAAACT [XGTACX_site3054] | 9.38
ATAAATTGAAGTAAATTTGACCTTTTTTTTTTTTTT [GTGCAC_negctrl_site354] | 8.93
ATAATAATATGTGGGTGTACATATACACATATATAT [XGTACX_site4356] | 9.45
AGAACATGCAAACATGCACACAGAAAAAAAAAATAT [CACACA_site8442] | 9.55
CAGCATGGTATACCTATAAAATATATATACTAACAT [TGCATGCA_negctrl_site51] | 9.23
ATGTTACACAGACACACACACATAAAAAAACAAAAA [CACACA_site7516] | 9.97
TTTTTAAAAAATAAGAAAAAATAAATATATTACAAA [XGTACX_negctrl_site191] | 8.94
GGCATATATACATATGGTACACATTTATTAATACCG [XGTACX_site2710] | 9.33
CACATACATATATATACACACAAATATATATACGCA [CACACA_site791] | 9.65
AGGATATAAAGTTGTGCATGTCAAGTGCACCGTATT [TGCATGCA_site451] | 9.3
AGAAAAATCTAAATTCGTACATAACGTTTAAACATA [XGTACX_site2511] | 8.97
GATGTGTATATTAAATGTACGAACAGTTGAGGCGAA [XGTACX_site7853] | 9.59
CCTAAATAAATGGACACACACATATATATATATATA [CACACA_site1439] | 9.49
CTTATATTAAGTATTACACACATATATATAAATGCA [CACACA_site4581] | 9.32
TTTTACGTAATATTTATACACACGAACCTTATTAAT [CACACA_site2300] | 9.43
TAGAAATAAGAAAAATGTACATATAATATTGAAAGT [XGTACX_site3043] | 9.66

Sequence | gcPBM binding intensity (ln)
TATATATATATAAGAAGTACAGAAAATTAGAAAAAA [XGTACX_site8773] | 9.55
AGTCTATAGTAATTTACACACAAAAAAATATCAGGA [CACACA_site7620] | 9.74
AGTAGTCTGGAGAAAAGTACATAGTATCTGGTAGCT [XGTACX_site2027] | 9.28
TTTATTGATAATATATATATATATATATATATATAT [GTGCAC_negctrl_site552] | 8.84
AATATCTTAGTGGATACACACATATAAATGGGTATT [CACACA_site4426] | 9.4
AAAAAATTAAAAAAAAAAAAATCATGAAAAAAACAA [CACACA_negctrl_site1673] | 9.36
TCATATGTTAAACACACACACACACCGAAAAAAACA [CACACA_site9067] | 10.2
AAAAAGGAAATAATAACACACATTAGTAATTATAAA [CACACA_site7573] | 9.57
CACAGACACGGACACACACACACAAAAAAAAAAAGA [CACACA_site4436] | 10.1
TATTAAAAAAATATTTGTACTTAAAATTTATTATAT [XGTACX_site1467] | 8.9
TATTTTCTTTAATTAATTATTGGTCTGAATGGGGTT [CACACA_negctrl_site418] | 9.1
ACAAAAAAAAAAAAAAAAAGAAGAATATATCTATAT [CACACA_negctrl_site759] | 9.16
TATCATACAATATTCACACAAATAAATTGACATATT [CACACA_site5891] | 9.27
TTTTTATAAAAATGAACACACACATATATATATATA [CACACA_site9160] | 9.42
AATAACACTATTTAACGTACAAAAAAAAAAAAGAAA [XGTACX_site3721] | 9.3
ATACTAAAAATGAATGTACACATATATATATATATA [TGCATGCA_negctrl_site209] | 9.35
ATATATCTTTATATAGTGCATTAAATATGTTGTAAT [GTGCAC_site9953] | 9.17
TATAATAAAATATTTTGTACGTATATTTTAATATTT [XGTACX_site2582] | 9.11
AAAAAAAATAAAAATAGTACCCAAAAAATTATGAAT [XGTACX_site6641] | 9.66
AGAGGAGTAAAACAAAACAAAGAGAAATAAACACAC [XGTACX_negctrl_site386] | 9.84
AATTAATAAATATTATATGTTAATATTTTTTTTGTT [CACACA_negctrl_site1692] | 9.06
